# PubChem BioAssay AID1508642 (National Center for Advancing Translational Sciences (NCATS), 2021)
# Out of some 43,000 compounds screened, about 200 (0.47%) were called active. Another 12% or so got no clear call; they are omitted. Calls come from the whole dose curve; as a rule, active = well fitted cell-killing curve with a large enough effect; inconclusive = small, poorly fitted or top-dose-only effect, or effect the other way; inactive = flat fitted curve, though single readings scatter. The list shows a part of the results.
# Test: Cell viability qHTS assay in S16 Pmp22-F2sN cells; note: nearly all actives have a fitted effect of over 65% in size
# Details: S16 Pmp22-F2sN Schwann cells (luciferase reporters placed in the Pmp22 gene) viability, CellTiter-Glo, 24 h; series mostly up to 57.5 µM; activity change, negative = cytotoxicity: at the top concentration
# In short: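 Seed 500-1,000 S16 Pmp22-F2sN cells per well in phenol-red-free DMEM with 10% heat-inactivated FBS; pin-add 23 nL compound; incubate 24 h at 37C; add CellTiter-Glo, wait 15 min protected from light; read luminescence.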
# % is set by controls: 0 for no effect and ±100 for the full control effect; potency is the fitted concentration of half-maximal effect.
Compound,"activity change, negative = cytotoxicity",Potency
COc1ccc(C(C)=O)cc1CSc1nc(NCCc2ccccc2)c2ccccc2n1,inactive: -11.3%,
CCN(CC)CCCNC(=O)c1nn(C)c2c1CSc1ccccc1-2,inactive: 2.76%,
Cc1ccc(-n2nc(C)c3c(C(=O)NCCc4ccccc4)cc(C)nc32)cc1,inactive: 19.1%,
Cc1ccc(CNC(=O)c2ccc3c(c2)nc2n3CCOC2)cc1,inactive: 0.404%,
COc1ccc(Cl)cc1CNCCSc1nnnn1-c1ccccc1,inactive: 1.68%,
COc1ccc(C2NC(=O)N(C)C3=C2C(=O)N(c2cccc(C(=O)O)c2)C3)cc1 (configuration not stated),inactive: -0.905%,
COc1ccc(NC(=O)CCc2nc3c(C)nn(-c4ccc(C)cc4)c3n(C)c2=O)cc1,inactive: -4.01%,
CCCS(=O)(=O)c1c(S(=O)(=O)CCC)c2cc(CC)ccn2c1C(=O)c1ccc(Cl)cc1,inactive: -0.851%,
Cc1cccc(N(CC(=O)NCCSCc2cccc(Cl)c2)S(=O)(=O)c2ccccc2)c1C,inactive: -2.25%,
Cc1cc(NC(=O)c2ccc3c(c2)OCCO3)cc(-c2nc3ccccc3o2)c1O,inactive: -7.64%,
Cc1ccc(NS(=O)(=O)c2cc(-c3cnc(C4CC4)o3)ccc2C)cc1Cl,,active: 14.1 µM
COc1ccc(NC(=O)N2CCOc3ccc(Cl)cc32)cc1,inactive: -7.32%,
Cc1ccc(C(=O)COC(=O)c2cccc(NC(=O)c3ccc(Cl)cc3Cl)c2)cc1,inactive: 5.44%,
CCC(C(=O)NCc1ccc(OC)c(OC)c1)n1nc(C)c2c(C)n(-c3ccc(C)cc3)nc2c1=O (configuration not stated),inactive: -14%,
CCOC(=O)c1c(NC(=O)c2cc3nc(-c4ccc(Br)cc4)cc(C(F)(F)F)n3n2)sc(C(C)=O)c1C,inactive: 2.53%,
CC(C)Oc1ccc(C(=O)NCC(c2ccc(N(C)C)cc2)N2CCCC2)cc1 (configuration not stated),inactive: 2.09%,
CCOc1ccccc1NC(=O)CCNS(=O)(=O)c1cccc2nonc12,inactive: 4.56%,
Cc1ccc(C)c(NC(=O)Cn2cc(C(=O)c3cccs3)c3ccccc32)c1,inactive: -14.9%,
COc1cc(C(=O)Nc2ccc3c(c2)N(C2CCCC2)C(=O)c2ccccc2S3)cc(OC)c1OC,inactive: -29.6%,
CCOc1ccccc1NC(=O)C1CCCN1S(=O)(=O)c1ccc2c(c1)C(C)(C)C(=O)N2C (configuration not stated),inactive: -7.3%,
CCCCNC(=O)c1cc(-c2ccc(OC)cc2)nc2n[nH]c(-c3cccc([N+](=O)[O-])c3)c12,,active: 15.8 µM
CCc1ccc(NC(=O)CCNS(=O)(=O)c2ccc3c(c2)oc(=O)n3C)cc1,inactive: -3.5%,
CCOC(=O)c1ccccc1NC(=O)CN1CCCN(Cc2cccc(Cl)c2)S1(=O)=O,inactive: -19.1%,
COc1ccc(Cc2nc3c4cnn(-c5ccccc5F)c4ncn3n2)cc1,inactive: 2.11%,

Compound,"activity change, negative = cytotoxicity",Potency
COc1ccc(Cl)cc1N(C)C(=O)c1cc2c(=O)oc3ccc(C)cc3c2s1,inactive: -0.381%,
CCc1nn(CC(=O)N(C)Cc2ccccc2)c(=O)c2cc3sccc3n12,inactive: -5.82%,
Cc1ccc(CSCCC(=O)NCc2ccc(F)cc2Cl)cc1,inactive: 15.1%,
COc1ccc(-c2nnc(SCC(=O)N(C)C3CCCCC3)o2)cc1OC,inactive: 27.2%,
CCOc1ccc(C(=O)c2oc3ccccc3c2NC(=O)c2cc(-c3ccc(Cl)cc3)on2)cc1,inactive: -2.32%,
O=S(=O)(NCC(c1ccco1)S(=O)(=O)c1cccs1)c1ccc(Cl)cc1 (configuration not stated),inactive: -13.8%,
CN(Cc1ccccc1)c1ncnc2c1nnn2C,inactive: -17.8%,
O=c1oc2c3c(ccc2c2ccccc12)OCN(Cc1ccccc1Cl)C3,inactive: -2.84%,
COC(=O)c1sccc1S(=O)(=O)N(CC(=O)Nc1ccccc1F)c1ccccc1,inactive: -3.27%,
Cc1ccc(NC(=O)Nc2ccccc2OCc2cc(=O)n3ccccc3n2)c(Cl)c1,inactive: -1.15%,
O=C(CCCCn1c(=O)c2ccccc2n(CC(=O)Nc2ccc(F)cc2F)c1=O)NCCc1ccccc1,inactive: 10.9%,
COC(=O)c1c(NC(=O)Cc2coc3ccc(C(C)C)cc23)sc2c1CCC2,inactive: -19.1%,
CCn1cc(C(=O)NCCCOC)c(=O)c2cc(S(=O)(=O)N3CCCC3)ccc21,inactive: -14.1%,
Cc1cccc(C(=O)n2nc(-c3cccnc3)nc2NCc2ccccc2)c1,inactive: 0.092%,
Cc1ccc(C(=O)NCCc2ccc(S(N)(=O)=O)cc2)cc1-n1cnc2cccnc21,inactive: 2.86%,
Cc1ccc(N=C2NC(=O)CC(C(=O)Nc3cc(C(F)(F)F)ccc3Cl)S2)cc1 (configuration not stated),inactive: -13.6%,
O=S(=O)(c1ccc(Cl)cc1)c1nnn2c1nc(NCc1ccc3c(c1)OCO3)c1sccc12,inactive: 4.33%,
Cc1ccc(N(CC(=O)Nc2cc(C)ccc2C)S(=O)(=O)c2c(C)noc2C)cc1,inactive: -1.73%,
Cc1ccc(COC(=O)c2[nH]c3c(c2C)C(=O)CC(c2ccc(N(C)C)cc2)C3)cc1 (configuration not stated),inactive: -4.75%,
CCC(=O)N1c2ccccc2CC1C(=O)NCc1ccc(N(C)C)cc1 (configuration not stated),inactive: 3.37%,
CC(=O)c1ccc(NC(=O)c2ccc(-n3cnnc3)cc2)cc1,inactive: -2.76%,
CCCCN(CC)CCNC(=O)C1CCCN(c2ncnc3onc(C)c23)C1 (configuration not stated),inactive: -3.26%,
COc1ccc(-n2c(SCC(=O)c3ccccc3)nc3c([nH]c4ccccc43)c2=O)cc1,inactive: 13.6%,
